Test results: PubChem BioAssay AID1656 (Sanford-Burnham Center for Chemical Genomics, 2009)
This is one part of the list. These are further read-outs of the screen, such as a control signal, another cell line or another target. No call is given for them. Most of these compounds were active or inconclusive in the main read-out, so they are no random draw.

Assay: inhibitors of hepatocyte lipid droplet formation, primary screen, imaging, high-throughput imaging, BODIPY stain (AID 1656);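 note: cells counted across two imaged fields per well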
Conditions: AML12 mouse hepatocytes, oleate lipid droplets, measured here: cell count, cytotoxicity flag, at 6.5 µM
Method in brief: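 Assay system: AML12 hepatocytes (mouse) / Also added: 100 µM oleic acid challenge / Times: overnight treatment with compound plus oleate / Detection: high-content imaging of BODIPY-stained droplets and DAPI nuclei / Evaluation: % inhibition of lipid droplet signal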
Compound O=C(Nc1cccc(Br)c1)c1cccc(OC(=S)N2CCOCC2)c1 has a cell count of 692 cells.
With CC1(C)Oc2ccc3ccc(=O)oc3c2/C(=C/Nc2ccc(O)cc2)C1=O the cell count was 702 cells.
With Cc1ccc(NC(=S)N/N=C/c2c(Cl)cccc2Cl)c(C)c1 the cell count was 207 cells.
For CCOC(=O)c1[nH]c2c(c1C)C(=O)CC(c1ccco1)C2 (stereo unspecified), the cell count was 129 cells.
With Cc1[nH]n(-c2ccccc2)c(=O)c1N=Nc1ccc(Cl)cc1 the cell count was 842 cells.
With COC(=O)Cn1c(O)c(N=NC(=O)CNC(=O)COc2cccc(C)c2)c2ccccc21 the cell count was 707 cells.
Cc1ccc(C2/C(=C(/O)c3cnn(-c4ccccc4)c3C)C(=O)C(=O)N2CCCN2CCOCC2)o1 (stereo unspecified) gave a cell count of 685 cells.
Work on CCN1C(=O)/C(=C/c2ccc(N3CCCC3)cc2)NC1=S yielded a cell count of 676 cells.
COc1cccc(CNC(=O)CCNC(=O)C2CCN(S(=O)(=O)c3ccccc3)CC2)c1 showed a cell count of 672 cells.
Work on CCOC(=O)C(C)Oc1cccc2c(=O)n(CC(=O)NCc3ccco3)ccc12 (stereo unspecified) yielded a cell count of 120 cells.
Work on COc1cc(C(=O)N/N=C/c2cc([N+](=O)[O-])cs2)cc(OC)c1OC yielded a cell count of 261 cells.
Cc1cc(C)cc(NC(=O)CSc2nc3[nH]ncc3c(=O)[nH]2)c1 showed a cell count of 274 cells.
Compound COc1ccc(-c2csc(NC(=O)c3ccc(OCC(=O)N4CCOCC4)c(OC)c3)n2)cc1OC has a cell count of 650 cells.
CC/C(=N/Nc1ccccc1Cl)c1cnnc(-c2ccccc2)n1 showed a cell count of 767 cells.
Work on Oc1ccc2ccccc2c1N=Nc1ccccc1F yielded a cell count of 782 cells.
Work on COc1ccc2c(c1)c(CC(=O)Nc1ccc(C)cc1)c(C)n2C(=O)c1ccc(Cl)cc1 yielded a cell count of 762 cells.
CN(C)S(=O)(=O)c1ccc(C(=O)Nc2nnc(SCc3cccc4ccccc34)s2)cc1 gave a cell count of 172 cells.
Cc1cccc(N(C)S(=O)(=O)c2ccc(-c3cnc(C4CC4)o3)cc2)c1 showed a cell count of 175 cells.
With CCc1c(C#N)c(SCCC(=O)Nc2ccc(OC)cc2)nc2c1C(=O)CC(C)(C)C2 the cell count was 737 cells.
In the case of COc1ccc(N=C/C=C2/C=C(c3ccccc3)OC(C)(C)O2)cc1, the cell count is reported as 739 cells.
CCOc1ccc(CCNC(=O)CCS(=O)(=O)c2ccc(OC)cc2)cc1OCC showed a cell count of 700 cells.
Compound COc1ccc(-c2nc3c(c4nnc(SC(C)C(=O)Nc5ccccc5)n24)COC(C)(C)C3)cc1 (stereo unspecified) has a cell count of 732 cells.
CCC(NC(=O)c1cc(COc2cncc(Cl)c2)on1)c1ccncc1 (stereo unspecified) showed a cell count of 739 cells.
In the case of CCOc1ccc(CCNC(=O)CSCc2ccc(C)cc2)cc1OCC, the cell count is reported as 717 cells.
For NC(=O)N/N=C\c1cc(Br)ccc1O, the cell count was 226 cells.
With CC(/C=N/NC(=O)c1cc(-c2ccncc2)nc2ccccc12)=C\c1ccco1 the cell count was 193 cells.
CCCCCOc1ccc(Br)cc1/C(C)=N/NC1=NCCN1 gave a cell count of 99 cells.
C=CCC(=O)N1CCC(n2nccc2NC(=O)CCOc2ccccc2)CC1 gave a cell count of 695 cells.
For COc1ccc(C)cc1NC(=O)CCC(=O)Nc1ccc2nc(N3CCN(C)CC3)cc(C)c2c1, the cell count was 699 cells.
CCN(CC)c1ccc(NC(=O)CCc2nnc3ccc(N4CCCC4)nn23)c(C)c1 gave a cell count of 843 cells.
CCCOc1ccccc1C(=O)N(Cc1ccc(C)o1)C1CCS(=O)(=O)C1 (stereo unspecified) showed a cell count of 720 cells.
Work on CCOC(=O)C(NC(=O)c1ccccc1)(OCc1ccccc1)C(F)(F)F (stereo unspecified) yielded a cell count of 630 cells.
Work on O=C1CSC(c2cn(-c3ccccc3)nc2-c2ccccc2)N1Cc1ccco1 (stereo unspecified) yielded a cell count of 671 cells.
Nc1nc(-c2ccccc2)c(N=Nc2ccccc2Cl)s1 gave a cell count of 462 cells.
CCCCn1c(=O)[nH]c(=O)c2c1nc(-c1ccc(-c3ccccc3)cc1)n2C showed a cell count of 817 cells.
In the case of CC(=O)Nc1ccc(-c2csc(NC(=O)Cc3ccccc3F)n2)cc1, the cell count is reported as 791 cells.
For CCc1ccc(NC(=O)C(C)OC(=O)c2ccc(N3CCCC3)c([N+](=O)[O-])c2)cc1 (stereo unspecified), the cell count was 674 cells.
Compound O=C(Nc1ccc([N+](=O)[O-])cn1)c1cc(-c2cccc(Br)c2)nc2ccccc12 has a cell count of 648 cells.
Cn1nc(C(F)(F)F)c(-c2cccc(C(F)(F)F)c2)c1NC(=O)Nc1ccc(F)cc1 showed a cell count of 744 cells.
Cc1cc(Cl)n2c(nc3ccccc32)c1C#N gave a cell count of 163 cells.
CCOc1ccc(C(=O)NC(C(=O)NCCc2ccc(S(N)(=O)=O)cc2)C(C)C)cc1 (stereo unspecified) gave a cell count of 56 cells.
Work on COc1ccc(C(=O)c2cc([N+](=O)[O-])ccc2N2CCOCC2)cc1 yielded a cell count of 73 cells.
In the case of CC(C)(C)c1ccc(-c2nnc(SCC(=O)Nc3sc4c(c3C#N)CCCC4)o2)cc1, the cell count is reported as 651 cells.
Compound CC1(OC(=O)CCc2ccccc2)C(=O)C=C2C=C(c3ccc(C#N)cc3)N(CCc3c[nH]c4ccccc34)C=C2C1=O (stereo unspecified) has a cell count of 772 cells.
O=C(NC(=S)Nc1ccccn1)c1ccc(-c2ccccc2)cc1 showed a cell count of 884 cells.
With CCOc1ccc(CCNC(=O)CSc2cc(=O)n(C)c3ccccc23)cc1OCC the cell count was 597 cells.
CCc1nn2c(N3CCOCC3)cc(C)nc2c1-c1ccc(F)cc1 gave a cell count of 729 cells.
Compound COc1ccc(CNC(=O)C2CCCN(C(=O)Nc3ccccc3OC)C2)cc1 (stereo unspecified) has a cell count of 730 cells.
Compound Cc1[nH]n(-c2ccccc2)c(=O)c1N=Nc1ccc(C(=O)O)cc1 has a cell count of 793 cells.
Work on N/C(=N/O)c1nc(N2CCCC2)nc(N(c2ccccc2)c2ccccc2)n1 yielded a cell count of 598 cells.
In the case of Cc1ccc(C)c(-n2c3nc(=O)[nH]c(=O)c-3cc3cc([N+](=O)[O-])ccc32)c1, the cell count is reported as 101 cells.
